Reference: patent US20170247431A1 (OMEROS, published 2017)

Columns and labels:
[1] = molecular target: T1, human MASP-1 (human, UniProt P48740 20-699); test: cell-based or functional assay
T1 sequence: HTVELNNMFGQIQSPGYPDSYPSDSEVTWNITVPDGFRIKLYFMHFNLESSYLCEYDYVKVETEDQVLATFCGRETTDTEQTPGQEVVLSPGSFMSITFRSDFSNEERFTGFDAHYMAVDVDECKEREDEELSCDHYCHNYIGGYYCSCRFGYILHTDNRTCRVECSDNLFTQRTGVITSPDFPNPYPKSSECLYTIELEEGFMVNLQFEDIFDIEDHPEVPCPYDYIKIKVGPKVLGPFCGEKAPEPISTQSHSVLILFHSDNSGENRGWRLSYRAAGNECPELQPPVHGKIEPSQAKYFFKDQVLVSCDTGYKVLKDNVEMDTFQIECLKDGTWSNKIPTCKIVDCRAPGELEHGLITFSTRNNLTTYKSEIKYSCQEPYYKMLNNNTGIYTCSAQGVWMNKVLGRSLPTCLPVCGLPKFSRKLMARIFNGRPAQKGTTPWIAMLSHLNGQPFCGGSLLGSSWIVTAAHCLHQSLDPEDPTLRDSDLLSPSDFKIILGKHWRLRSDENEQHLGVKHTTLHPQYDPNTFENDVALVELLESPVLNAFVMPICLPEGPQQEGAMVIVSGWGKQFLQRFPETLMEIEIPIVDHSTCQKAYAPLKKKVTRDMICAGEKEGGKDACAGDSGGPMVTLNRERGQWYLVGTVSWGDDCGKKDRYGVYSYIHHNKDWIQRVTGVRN

[2] = molecular target: human MASP-2 (human, UniProt O00187 16-686); test: cell-based or functional assay
UniProt O00187, sequence (O00187 16-686 limits assumed): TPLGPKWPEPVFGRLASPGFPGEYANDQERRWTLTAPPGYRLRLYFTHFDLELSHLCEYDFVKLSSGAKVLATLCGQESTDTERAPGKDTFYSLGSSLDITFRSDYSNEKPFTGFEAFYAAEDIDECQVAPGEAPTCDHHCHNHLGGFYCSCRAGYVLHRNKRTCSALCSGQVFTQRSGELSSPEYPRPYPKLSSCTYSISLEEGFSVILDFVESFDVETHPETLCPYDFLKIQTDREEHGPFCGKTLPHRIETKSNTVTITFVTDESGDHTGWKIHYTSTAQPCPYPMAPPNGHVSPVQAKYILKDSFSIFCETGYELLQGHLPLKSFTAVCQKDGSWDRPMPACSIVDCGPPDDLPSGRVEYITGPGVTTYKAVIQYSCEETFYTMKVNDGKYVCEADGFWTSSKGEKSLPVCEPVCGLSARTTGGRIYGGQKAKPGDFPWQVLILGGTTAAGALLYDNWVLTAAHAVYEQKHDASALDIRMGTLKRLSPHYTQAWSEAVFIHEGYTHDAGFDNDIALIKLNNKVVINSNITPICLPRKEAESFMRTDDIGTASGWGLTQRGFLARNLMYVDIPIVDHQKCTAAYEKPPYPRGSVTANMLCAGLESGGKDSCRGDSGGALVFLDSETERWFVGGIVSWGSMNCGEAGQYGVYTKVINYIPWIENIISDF

Binder	IC50 of inhibition of C3b deposition from 1% normal human serum in mannan-coated ELISA wells [1] [nM]	IC50 of inhibition of C3b deposition from 1% normal human serum in mannan-coated ELISA wells [2] [nM]
SGMI-1Fc (Fc fusion) LEVTCEPGTTFKDKCNTCRCGSDGKSAFCTRKLCYQGTGGGSGSSSRS[human IgG1 Fc not written out]	~27	–
SGMI-2Fc (Fc fusion) LEVTCEPGTTFKDKCNTCRCGSDGKSAVCTKLWCNQGTGGGSGSSSRS[human IgG1 Fc not written out]	–	~300
